The list shows a part of the results.
What was measured:
Experiment in all cases: glycan array binding signal (z-score within array); higher = stronger binding
Conditions in all cases: glycan notation: IUPAC condensed, linker removed
[1] = biological target: Gal(b1-4)GalNAc(b1-3)[Fuc(a1-2)]Gal(b1-4)GlcNAc
Summary of the method: (§1)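 Arrays were curated from the Consortium for Functional Glycomics database, 3228 in total, and kept only where the protein sequence was available. Binding is expressed as a within-array Z-score. This score was averaged across arrays of the same protein sequence at different concentrations or buffers and across linkers, and negative values can be read as non-binding.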

Gal(b1-4)Glc = biological target: Gal(b1-4)Glc
Summary of the method: as §1

Gal(b1-4)Glc6S = biological target: Gal(b1-4)Glc6S
Summary of the method: as §1

Gal(b1-4)GlcNAc = biological target: Gal(b1-4)GlcNAc
Summary of the method: as §1

[2] = biological target: Gal(b1-4)GlcNAc(a1-6)Gal(b1-4)GlcNAc
Summary of the method: as §1

Gal(b1-4)GlcNAc(b1-2)Man = biological target: Gal(b1-4)GlcNAc(b1-2)Man
Summary of the method: as §1

[3] = biological target: Gal(b1-4)GlcNAc(b1-2)Man(a1-3)Man(b1-4)GlcNAc(b1-4)GlcNAc
Summary of the method: as §1

[4] = biological target: Gal(b1-4)GlcNAc(b1-2)Man(a1-3)[Gal(b1-4)GlcNAc(b1-2)Man(a1-6)]Man(b1-4)GlcNAc(b1-4)GlcNAc
Summary of the method: as §1

[5] = biological target: Gal(b1-4)GlcNAc(b1-2)Man(a1-3)[Gal(b1-4)GlcNAc(b1-2)Man(a1-6)]Man(b1-4)GlcNAc(b1-4)[Fuc(a1-6)]GlcNAc
Summary of the method: as §1

[6] = biological target: Gal(b1-4)GlcNAc(b1-2)Man(a1-3)[Gal(b1-4)GlcNAc(b1-2)Man(a1-6)][Gal(b1-4)GlcNAc(b1-4)]Man(b1-4)GlcNAc(b1-4)[Fuc(a1-6)]GlcNAc
Summary of the method: as §1

[7] = biological target: Gal(b1-4)GlcNAc(b1-2)Man(a1-3)[Gal(b1-4)GlcNAc(b1-2)Man(a1-6)][GlcNAc(b1-4)]Man(b1-4)GlcNAc(b1-4)[Fuc(a1-6)]GlcNAc
Summary of the method: as §1

[8] = biological target: Gal(b1-4)GlcNAc(b1-2)Man(a1-3)[GlcNAc(b1-2)Man(a1-6)]Man(b1-4)GlcNAc(b1-4)GlcNAc
Summary of the method: as §1

[9] = biological target: Gal(b1-4)GlcNAc(b1-2)Man(a1-3)[GlcNAc(b1-4)][Gal(b1-4)GlcNAc(b1-2)Man(a1-6)]Man(b1-4)GlcNAc(b1-4)GlcNAc
Summary of the method: as §1

[10] = biological target: Gal(b1-4)GlcNAc(b1-2)Man(a1-3)[Man(a1-6)]Man(b1-4)GlcNAc(b1-4)GlcNAc
Summary of the method: as §1

[11] = biological target: Gal(b1-4)GlcNAc(b1-2)Man(a1-6)Man(b1-4)GlcNAc(b1-4)GlcNAc
Summary of the method: as §1

[12] = biological target: Gal(b1-4)GlcNAc(b1-2)Man(a1-6)[GlcNAc(b1-2)Man(a1-3)]Man(b1-4)GlcNAc(b1-4)GlcNAc
Summary of the method: as §1

[13] = biological target: Gal(b1-4)GlcNAc(b1-2)Man(a1-6)[Man(a1-3)]Man(b1-4)GlcNAc(b1-4)GlcNAc
Summary of the method: as §1

[14] = biological target: Gal(b1-4)GlcNAc(b1-2)[Gal(b1-4)GlcNAc(b1-4)]Man(a1-3)[Gal(b1-4)GlcNAc(b1-2)Man(a1-6)]Man(b1-4)GlcNAc(b1-4)GlcNAc
Summary of the method: as §1

[15] = biological target: Gal(b1-4)GlcNAc(b1-2)[Gal(b1-4)GlcNAc(b1-4)]Man(a1-3)[Gal(b1-4)GlcNAc(b1-2)[Gal(b1-4)GlcNAc(b1-6)]Man(a1-6)]Man(b1-4)GlcNAc(b1-4)GlcNAc
Summary of the method: as §1

[16] = biological target: Gal(b1-4)GlcNAc(b1-2)[Gal(b1-4)GlcNAc(b1-4)]Man(a1-3)[GlcNAc(b1-4)][Gal(b1-4)GlcNAc(b1-2)Man(a1-6)]Man(b1-4)GlcNAc(b1-4)GlcNAc
Summary of the method: as §1

[17] = biological target: Gal(b1-4)GlcNAc(b1-2)[Gal(b1-4)GlcNAc(b1-4)]Man(a1-3)[GlcNAc(b1-4)][Gal(b1-4)GlcNAc(b1-2)[Gal(b1-4)GlcNAc(b1-6)]Man(a1-6)]Man(b1-4)GlcNAc(b1-4)GlcNAc
Summary of the method: as §1

[18] = biological target: Gal(b1-4)GlcNAc(b1-2)[Gal(b1-4)GlcNAc(b1-6)]Man(a1-6)[Gal(b1-4)GlcNAc(b1-2)Man(a1-3)]Man(b1-4)GlcNAc(b1-4)GlcNAc
Summary of the method: as §1

[19] = biological target: Gal(b1-4)GlcNAc(b1-2)[Gal(b1-4)GlcNAc(b1-6)]Man(a1-6)[Gal(b1-4)GlcNAc(b1-2)Man(a1-3)]Man(b1-4)GlcNAc(b1-4)[Fuc(a1-6)]GlcNAc
Summary of the method: as §1

[20] = biological target: Gal(b1-4)GlcNAc(b1-2)[Gal(b1-4)GlcNAc(b1-6)]Man(a1-6)[GlcNAc(b1-4)][Gal(b1-4)GlcNAc(b1-2)Man(a1-3)]Man(b1-4)GlcNAc(b1-4)GlcNAc
Summary of the method: as §1

[21] = biological target: Gal(b1-4)GlcNAc(b1-2)[Gal(b1-4)GlcNAc(b1-6)]Man(a1-6)[GlcNAc(b1-4)][Gal(b1-4)GlcNAc(b1-2)[Gal(b1-4)GlcNAc(b1-4)]Man(a1-3)]Man(b1-4)GlcNAc(b1-4)[Fuc(a1-6)]GlcNAc
Summary of the method: as §1

[22] = biological target: Gal(b1-4)GlcNAc(b1-3)Gal(b1-3)GalNAc
Summary of the method: as §1

[23] = biological target: Gal(b1-4)GlcNAc(b1-3)Gal(b1-3)GlcNAc
Summary of the method: as §1

[24] = biological target: Gal(b1-4)GlcNAc(b1-3)Gal(b1-4)Glc
Summary of the method: as §1

[25] = biological target: Gal(b1-4)GlcNAc(b1-3)Gal(b1-4)GlcNAc
Summary of the method: as §1

[26] = biological target: Gal(b1-4)GlcNAc(b1-3)Gal(b1-4)GlcNAc(b1-2)Man(a1-3)[Gal(b1-4)GlcNAc(b1-3)Gal(b1-4)GlcNAc(b1-2)Man(a1-6)]Man(b1-4)GlcNAc(b1-4)GlcNAc
Summary of the method: as §1

B1: CvGal2 (Crassostrea virginica) (protein)
chain: MGSSHHHHHHSSGLVPRGSHMRIREAGKRKDTTKVYQIPDGLFPGQQVMLRGRVPWGSKSFSINFSATPRMGEGDILFHLNPRPSEGVCIRNALLNGSWGAEEKWQPYFPFDDGRSFSVKIEVTNDAFRTFVNGRPFVDFLHRTDFRAGKYLTLREGAEYYDVIFQSKPNIPLTTAIHNGMRIGKTIRIRGMCTAQDGFAINFNDNRNNIYFHFNARPAQRTVVRNSYFGSWGNEETAISKEFPFYPFLYFYASFVCMEDKFAVYVNDEHFIDFAHRGNPNNISVLQIKGSVNVLDTECLEPMGEDAMTEVDSGLENGDLFVLNGLMTERGKTFAVNFLNGFTENDDIALHFNPRKSTGEVVLNSRYGGAWQSEEKVALPGVFWSNRPLQVKVETKRNKFKIYVNGVDLAKYKIRGNVEDVHAVQVKGDVFLLETLLLKRLMKPVWERLTGGIRPGTWVTLQGTPKKNWQQFVVNFALDDTLDGDIAFHFNVRRGARQVVRNHRQSGAWGREETVTPFFAFDSEATFEIVFFVKEEKFLIYFNGKLFFEFVHRVPVERITHIYMDGDCNFYEPEVVI
- glycan array binding signal (z-score) [1]: -0.333
- glycan array binding signal (z-score) (Gal(b1-4)Glc): -0.305
- glycan array binding signal (z-score) (Gal(b1-4)Glc6S): 0.114
- glycan array binding signal (z-score) (Gal(b1-4)GlcNAc): -0.336
- glycan array binding signal (z-score) [2]: -0.325
- glycan array binding signal (z-score) (Gal(b1-4)GlcNAc(b1-2)Man): -0.318
- glycan array binding signal (z-score) [3]: -0.315
- glycan array binding signal (z-score) [4]: -0.287
- glycan array binding signal (z-score) [5]: -0.3
- glycan array binding signal (z-score) [6]: -0.11
- glycan array binding signal (z-score) [7]: -0.277
- glycan array binding signal (z-score) [8]: -0.329
- glycan array binding signal (z-score) [9]: -0.3
- glycan array binding signal (z-score) [10]: -0.316
- glycan array binding signal (z-score) [11]: -0.324
- glycan array binding signal (z-score) [12]: -0.32
- glycan array binding signal (z-score) [13]: -0.329
- glycan array binding signal (z-score) [14]: 0.253
- glycan array binding signal (z-score) [15]: -0.18
- glycan array binding signal (z-score) [16]: -0.079
- glycan array binding signal (z-score) [17]: 0.58
- glycan array binding signal (z-score) [18]: 0.1
- glycan array binding signal (z-score) [19]: 0.523
- glycan array binding signal (z-score) [20]: 0.118
- glycan array binding signal (z-score) [21]: 0.876
- glycan array binding signal (z-score) [22]: -0.331
- glycan array binding signal (z-score) [23]: -0.261
- glycan array binding signal (z-score) [24]: -0.257
- glycan array binding signal (z-score) [25]: -0.325
- glycan array binding signal (z-score) [26]: -0.23

— the supplement of paper PMC8728848
